“And” between values parts separate entries of the source, which are not always exact repeats. Equal values may be shown once. About 12,000 (3.5%) of roughly 340,000 compounds were called active. Inconclusive results, whose numbers are uncertain, are shown with a selection of clear calls. Calls come from the whole dose curve; as a rule, active = well fitted inhibition curve with a large enough effect; inconclusive = small, poorly fitted or top-dose-only effect, or another doubt; inactive = no such curve, though single readings can be large or run the other way. No potency is given beside an inconclusive call; the fits are too rough.
test: qHTS Assay for Inhibitors of Hepatitis C Virus (HCV); conditions: Huh7.5.1 HCVcc-Cre (HCVcc is cell-culture hepatitis C virus) infection, luciferase reporter, 44 h; activity change, negative = inhibition: at 41.8 µM (top of the series) unless noted
In short: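 Cells (1,000/well) were plated 4 h before compound, then infected with HCVcc-Cre virus (~0.5 moi). After 44 h further culture, infection was read as luciferase luminescence following a 15 min substrate incubation at room temperature.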
% is set by controls: 0 for no effect and ±100 for the full control effect; potency is the fitted concentration of half-maximal effect; tags give direction and shape of the fitted curve.

SMILES | Potency | activity change, negative = inhibition
Cc1cc(C)c(C)c(S(=O)(=O)ON2C(=O)c3ccccc3C2=O)c1C | inconclusive [inhibitor, single point] | –
CCOc1ccccc1N1Cc2cc(C)c(C)cc2C1 | inconclusive [inhibitor, single point] | –
O=C(O)c1cc([N+](=O)[O-])ccc1NCc1cccnc1 | – | inactive: 22.9%
COc1ccc(OC)c(NC(=O)Nc2cccc(Cn3cccn3)c2)c1 | inconclusive [inhibitor, partial curve] | –
COCCNc1cc(C)nc2cc(-c3ccc(C)cc3)nn12 | inconclusive [inhibitor, full curve] | –
NS(=O)(=O)c1ccc(Nc2nc(-c3ccccc3)cs2)cc1 | inconclusive [inhibitor, single point] | –
Cn1c(SCC(=O)N2CCCC2=O)nc2ccccc21 | – | inactive: 7.84%
CCOc1ccc(S(=O)(=O)N2CCOCC2)cc1NC(=O)Cc1c(F)cccc1Cl | inconclusive [inhibitor, single point] | –
COc1ccc(-c2cc(=O)oc3c(C)c(OCC(=O)Nc4cccnc4)ccc23)cc1 | inconclusive [inhibitor, full curve, poor fit] | –
CCc1ccc(N(CC(=O)Nc2ccc(NC(C)=O)cc2)S(=O)(=O)c2ccccc2)cc1 | – | inactive: -20.6%
CC1CCCN(CC(=O)N2c3ccccc3Sc3ccccc32)C1 (configuration not stated) | inconclusive [inhibitor, single point] | –
CC(=O)Nc1ccc(NC(=O)c2cc(=O)c3ccc(C)cc3o2)cc1 | inconclusive [inhibitor, partial curve] | –
COc1ccccc1N(C1=NCCCS1)S(=O)(=O)c1ccc(C(C)(C)C)cc1 | inconclusive [inhibitor, partial curve, poor fit] | –
O=C(COC(=O)c1c2c(nc3ccccc13)/C(=C/c1ccco1)CC2)NC1CCCC1 | inconclusive [inhibitor, partial curve, poor fit] | –
COC(=O)CCNC(=O)Cc1ccc(S(=O)(=O)N2CCCCC2)s1 | inconclusive [inhibitor, single point] | –
O=C(/C=C/c1ccccc1)C1C(=O)c2ccccc2C1=O | inconclusive [inhibitor, partial curve] | –
S=C(Nc1ccc2nsnc2c1)N1CCCCC1 | – | inactive: 7.03%
COc1ccc(Nc2nc(N3CCCCC3)c3ccccc3n2)cc1 | inconclusive [inhibitor, single point] | –
Cn1nc(C(=O)NCc2ccccc2CN2CCCC2)c2ccccc2c1=O | inconclusive [inhibitor, single point] | –
Cc1ccc2oc(C(=O)N3CCC(O)(c4cccc(C(F)(F)F)c4)CC3)c(C)c2c1 | inconclusive [inhibitor, single point] | –
COc1ccc(-c2cc(C(=O)NCc3ccco3)c3ccccc3n2)cc1OC | inconclusive [inhibitor, partial curve] | –
CC(=O)c1cc2c(cc1NS(=O)(=O)c1ccc3c(c1)OCCO3)OCO2 | inconclusive [inhibitor, partial curve] | –
O=[N+]([O-])c1ccc(Oc2cccc(Br)c2)c2ccncc12 | inconclusive [inhibitor, single point] | –

SMILES | Potency | activity change, negative = inhibition
NC1=NC[C@H](Cc2ccc(O)cc2)N1CC1CCCCC1 | – | inactive: 16.3%
CCOC(=O)c1ccc(NC(=O)COc2ccc(S(=O)(=O)NC(C)CC)cc2)cc1 (configuration not stated) | inconclusive [inhibitor, partial curve] | –
O=C(Nc1cc(Cl)ccc1N1CCOCC1)c1cc2ccccc2o1 | inconclusive [inhibitor, full curve, poor fit] | –
COc1ccc(CNC(=O)COC(=O)c2c[nH]c(=O)[nH]c2=O)cc1OC | inconclusive [inhibitor, single point] | –
Cc1ccc(-c2nn(-c3ccccc3)cc2CNCc2ccccc2)cc1 | active: 11.2 µM | –
CC(=NO)c1ccc2c(c1)Cc1cc([N+](=O)[O-])ccc1-2 | inconclusive [inhibitor, single point] | –
Cc1ccc(-n2c(O)c(C=Nc3ccc(S(=O)(=O)N(C)C)cc3)c(=O)[nH]c2=O)cc1 | – | inactive: -4.92%
COc1ccc(Cl)cc1NC(=O)CN(C)C(=O)c1sc2ccccc2c1Cl | active: 12.6 µM | –
NC(=O)c1c(NC(=O)c2ccc(F)cc2)sc2c1CCC2 | inconclusive [inhibitor, partial curve] | –
COc1ccc(NC(=O)c2oc3ccccc3c2NC(=O)C2CC2)cc1OC | inconclusive [inhibitor, partial curve] | –
CCCC[C@@H]1C[C@H]1[C@@H](NC(=O)c1cccs1)c1ccc(C(F)(F)F)cc1 | – | inactive: -1.51%
CCn1c(=O)c(C(=O)CN2CCN(S(=O)(=O)c3ccc(C)cc3C)CC2)c(N)n(Cc2ccccc2)c1=O | inconclusive [inhibitor, single point] | –
CCn1cc(C(=O)Nc2ccc(OC)c(OC)c2)c2cc(OC)c(OC)cc2c1=O | – | inactive: -22.6%
CCN(CCCNC(=O)CN(C)S(=O)(=O)c1cccc2nsnc12)c1ccccc1 | inconclusive [inhibitor, partial curve] | –
COc1ccc(N2CCN(C(=O)[C@@H]3CCCN3C3=NS(=O)(=O)c4ccccc43)CC2)cc1 | – | inactive: 6.4%
COc1ccc(NC(=O)/C(C#N)=C\c2cc(C)n(-c3ccc4c(c3)OCO4)c2C)cc1 | inconclusive [inhibitor, partial curve] | –
CCCCCCC1CCC(C(=O)N2CCOCC2)CC1 (configuration not stated) | – | inactive: 0.663%
CCc1ccccc1NC(=O)c1cc2sccc2n1C | – | inactive: -26.2%
Cc1cccc(CNC(=O)C2CCC(=O)N(CCc3cccc(F)c3)C2)n1 (configuration not stated) | – | inactive: 18.4%
CCCN(CC(=O)Nc1ccccc1C)C(=O)c1ccc(-c2ccc(C(C)=O)cc2)o1 | inconclusive [inhibitor, partial curve] | –
COC(=O)c1ccc2c(c1)C(C)(C)C(/C=C/c1ccc(O)cc1)=[N+]2C | active: 5.62 µM and active: 2.24 µM | –
CCOC(=O)CNC(=O)c1cc(OC)cc(OC)c1 | inconclusive [inhibitor, single point] | –
COc1ccc(C(c2nnnn2C2CCCC2)N2CCC(C)CC2)cc1 (configuration not stated) | inconclusive [inhibitor, partial curve] | –

SMILES | Potency | activity change, negative = inhibition
Cc1occc1C(=O)N1CCN(c2ccc([N+](=O)[O-])cc2)CC1 | – | inactive: -26.1%
CCOc1ccc2nc(N3CCCC(C(=O)NCCCN4CCCCC4)C3)sc2c1 (configuration not stated) | inconclusive [inhibitor, partial curve] | –
C/C(=N\N1CCN(c2ccc(Cl)cc2)CC1)c1cccc([N+](=O)[O-])c1 | inconclusive [inhibitor, partial curve] | –
O=C(COc1ccc(-c2ccccc2)cc1)N1CCN(C(=O)c2cccs2)CC1 | inconclusive [inhibitor, partial curve] | –
N#Cc1c(Nc2ccccc2)c(/C=N/N=C/c2ccccc2)c[nH]c1=O | inconclusive [inhibitor, full curve] | –
COc1ccc2oc3cc(C)[n+]([O-])c(-c4ccc(Cl)cc4)c3c2c1 | inconclusive [inhibitor, partial curve, poor fit] | –
CCOC(=O)C1CCCN(Cc2nc3ccc([N+](=O)[O-])cc3c(=O)n2-c2ccc(OC)cc2OC)C1 (configuration not stated) | inconclusive [inhibitor, single point] | –
Cc1cccn2c(=O)c3cc(C(=O)NC4CCS(=O)(=O)C4)n(Cc4ccccc4)c3nc12 (configuration not stated) | inconclusive [inhibitor, partial curve] | –
Cc1ccc(C2C(C#N)=C(N)Oc3cc4c(cc32)OCO4)cc1 (configuration not stated) | inconclusive [inhibitor, single point] | –
CCc1cc(C(=O)Cc2nc3ccccc3s2)c(O)cc1OCC(=O)O | – | inactive: -1.24%
COc1ccccc1C(=O)Nc1ccc(Cc2ccncc2)cc1 | inconclusive [inhibitor, single point] | –
Cc1sc(NC(=O)CSc2nc(N)cc(N)n2)c(C#N)c1C | inconclusive [inhibitor, single point] | –
COc1ccc(NC(=S)NC2CC3CCCC(C2)N3C2CC2)cc1 (configuration not stated) | inconclusive [inhibitor, single point] | –
COC(=O)C1CCN(C(=O)Cc2ccc(Br)cc2)CC1 | inconclusive [inhibitor, single point] | –
COc1ccc(-c2oc(=O)c3cc(OC)c(OC)cc3c2-c2cc(F)cc(OC)c2)cc1 | inconclusive [inhibitor, partial curve] | –
Cc1cc(C(=O)Nc2nc(-c3ccccn3)cs2)ccc1[N+](=O)[O-] | active: 11.2 µM | –
CCOc1nc(-c2ccccc2)ccc1-c1noc(-c2cccnc2)n1 | – | inactive: -3.76%
CCN(CC)C(=O)CSc1nc2cc3c(cc2c(=O)n1Cc1ccc(OC)cc1)OCO3 | inconclusive [inhibitor, full curve] | –
COc1cccc(CC(NC(C)=O)C(=O)NC2CCN(S(=O)(=O)c3ccc(NC(C)=O)cc3)CC2)c1 (configuration not stated) | – | inactive: -11.3%
Cc1cc(Cn2nc(-c3ccccc3)cc2C(=O)NCc2cccc(C(F)(F)F)c2)on1 | inconclusive [inhibitor, single point] | –
O=C(NCc1cccc(Cl)c1)C1CCCN(c2ncnc3c2nc2n3CCCCC2)C1 (configuration not stated) | inconclusive [inhibitor, single point] | –

From PubChem BioAssay AID651820 (National Center for Advancing Translational Sciences (NCATS), 2012)
